± gives the standard deviation. The list shows a part of the results, in another mix than the full data.
Test system: MIWI (PIWIL1) piRISC loaded with L1MC piRNA (30 nt)
Experiment: pre-steady-state target cleavage rate (min^-1); MIWI and MILI are mouse PIWI proteins and EfPiwi is from a freshwater sponge; tags in brackets are library labels; higher = faster piRNA-guided slicing of the target
Details: guide: L1MC piRNA 5'p-UAACUAAAUACUAUGCAAGCUGUAGGUCCU; auxiliary factor: 500 nM mouse GTSF1
Summary of the method: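 The pre-steady-state cleavage rate was calculated from a burst-and-steady-state fit. Data came from Cleave-'n-Seq, in which […] transcribed, DNA-blocked target RNA library was mixed with 1 nM active affinity-purified piRISC carrying one synthetic guide, with or without 500 nM GTSF1 partner protein, in HEPES–potassium acetate buffer at 33 °C for 0–8 or 0–960 min. Uncleaved targets were sequenced and normalised to depth and to weakly complementary targets, three trials were pooled, and k3 was capped at 0.0001 min^-1.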
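Further: 1 nM active piRISC with 0.1 nM target library at 33 °C single turnover.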

| Sequence | pre-steady-state target cleavage rate |
| --- | --- |
| UCCUGGUACAGCUUGCAUAGUUUUUUGUUA | 0.183 ± 0.032 |
| UCCACCUACAGCUUGCAUAGUUUUUAGUAA | 0.216 ± 0.036 |
| UCCUCCUACAGCUUGAAUAGUAUUUAGUUA | 1.15 ± 0.036 |
| UCCUCCUACACCUUGCAUAGUAAUUAGUUA | 0.569 ± 0.076 |
| UCCUGGAUGUGCUUGCAUAGUAUUAAGUAA | 0.0337 ± 0.01 |
| UCCUCCUGACAGCUUGCAUAGUAUUUAGUUA | 0.756 ± 0.029 |
| AGGUCCUACAGCUUGCAUAGUAUUUAGAAA | 0.285 ± 0.045 |
| UCCUGGAUGAGCCUUGCAUAGUAUUUAGUUA | 0.458 ± 0.035 |
| UCCUGGAUGUGCUUGCAUAGUUAUUAGUUA | 0.00955 ± 0.0048 |
| UCCUCCUACAGCUUGCAAAGUAUUUAGUUA | 1.14 ± 0.039 |
| UCCACCUACAGCUUGCAUAGUAUAUAGUAA | 0.304 ± 0.048 |
| UCGACCUAGUGCUUGCAUAGUAUUUAGUAA | 0.472 ± 0.034 |
| AUGGACCUACAGCUUGCAUAGUAUUUAGUUA | 1.34 ± 0.088 |
| UCCACCAACAGCUUGCAUACUAUUUAGUUA | 0.359 ± 0.02 |
| UCCACCUACAGCUUGCAUAGUCUUUAGUUA | 0.341 ± 0.035 |
| UCCACCUACAGCUCGCAUAGUAUUUAGUUA | 1.11 ± 0.043 |
| UCCUGGUACUGCUUGCAUAGUAAUUAGUUA | 0.313 ± 0.047 |
| UCCUCCUACAGCUUGCAUAGUAUUAAGUUA | 0.435 ± 0.032 |
| UCCACGUACAGCUUGCAUAGUAUUUACUUA | 0.261 ± 0.027 |
| AGCACCUACAGCUUGCAUAGUAUUUUGUUA | 1.3 ± 0.2 |

| Sequence | pre-steady-state target cleavage rate |
| --- | --- |
| UCCUGGAAGAGCUUGCAUAGUUUUUAGUUA | 0.203 ± 0.018 |
| UCCUGCUACAGCUUGCUAGUAUUUAGUUA | 0.0392 ± 0.013 |
| UCCUCCUACAGCUUGCAUAGAAUUUAGAUA | 0.189 ± 0.03 |
| UCCUGGAUGAGCUUGCAUACUAUAUAGUUA | 0.0617 ± 0.013 |
| UCGACCUACAGCUAGCUUAGUAUUUAGUUA | 1.04 ± 0.062 |
| UCGAGCAACAGCUUGCAUAGUAUUUAGUUA | 1.29 ± 0.044 |
| UCCUGGAUCAGCUAGGAUAGUAUUUAGUUA | 0.414 ± 0.043 |
| UCCACCUACAGCUUGCAUAGUUAAUAGUUA | 0.0808 ± 0.015 |
| UGGACGUACAGCUUGCAUAGUAUUUUCAAA | 0.213 ± 0.034 |
| UCCACCUACACCUUGCAUAGUAUUUAGUUA | 0.959 ± 0.041 |
| UCGACCUACAGCUUGCAAAGUAUUUAGUUA | 1.47 ± 0.056 |
| UCCUCCUUGAGCUUGCAUAGUAUUUACAAA | 0.189 ± 0.034 |
| UCGACCUACAGCUUGCAUAGUAUUUACGUUA | 0.862 ± 0.043 |
| AGGAACCUACAGCUUGCAUAGUAUUUAGUUA | 1.23 ± 0.059 |
| UGGACCUACAGCUUGCAUACUAUUAAGUUA | 0.13 ± 0.012 |
| UCCUGGAUCAGGUUGCAAAGUAUUUAGUUA | 0.391 ± 0.036 |
| UGGACCUACAGCAAGCAUAGUAUUUAGUAA | 0.898 ± 0.11 |
| UCCUGCUACACCUUGCAUAGUAUUUUGUUA | 0.374 ± 0.079 |
| UCCUGGAUGAGCUUGCAUAGUAUUGAGUUA | 0.426 ± 0.048 |
| UCCACCUACAGGUUGCAUAGUAUUUACUUA | 0.384 ± 0.046 |
